Test results reported in the RNAGym collection of RNA variant scans (doi:10.7554/elife.90254).
Read counts are not given, so values of variants with three or more changes are uncertain.

B1: LINE1-mini (parent)
chain: GGCAGAGCUCAACACAGCGUGGCAAAGUGGCUGUGGCUAGACUGCC

Variants of: B1
Experiment: self-cleavage, relative activity (ratio to wild type); higher = more cleavage; in vitro, sequencing; the parent is a self-cleaving ribozyme

Row | Variant | self-cleavage
1 | G2U G29U C45G | 0.38
2 | G2U C37A C42U | 0.08
3 | G2U G7U G30C G40A | 0.05
4 | G2U G7U U9C | 0
5 | G2U C18A C23G | 0.02
6 | G2U G7C A11U C15A A16U U34G A41C | 0.01
7 | G2U C10A A11C C37U C46G | 0.01
8 | G2U G27U G29A | 0.2
9 | G2U C13U G22U G27C | 0.06
10 | G2U G7A C8A G30U C46A | 0.08
11 | G2U G7C A11C A24C U34C C37A A39U | 0
12 | G2U G5A A12G G40U | 0.05
13 | C3A A4C A12C G36U | 0.09
14 | G2U G7A C10A G22U U32A U34C C37A | 0.01
15 | G2U U32G C45A | 0.04
16 | G2U C23U G33A | 0.01
17 | G2U C8G G29U | 0.01
18 | G2U G5A C10U A11U C18G U32G | 0.01
19 | G2U C13U A24G G27C G29A C46G | 0.1
20 | G2U C23A G36C | 0.21
21 | G2U C10A C15A G40A | 0.03

Row | Variant | self-cleavage
22 | G2U G5A U20A U34A | 0.01
23 | G2U U9G G27A | 0.04
24 | G2U C18G G30U C46A | 0.04
25 | G2U G21C G36A | 0.02
26 | G2U C10A G27A G35A | 0.01
27 | G2U C18U C37A | 0.01
28 | G2U G30U C46A | 0.08
29 | G2U G19C G36A C46A | 0.1
30 | G2U U9A C13A A16U U34G G40A | 0.02
31 | G2U G7A G27C U32C | 0.09
32 | G2U C15G C42G | 0.01
33 | G2U G5C G7U G19U U34A U38C | 0.07
34 | G2U G29C U34A G36C | 0.01
35 | G2U C15A U28A | 0.05
36 | G2U U9G A14C | 0.07
37 | G2U G19U A25U A39U | 0.04
38 | G2U C8A G27C G35U | 0.04
39 | G2U C8U A12U G29U | 0.03
40 | G2U G5C A14U G21U U38G | 0
41 | G2U C8A A24G G33A | 0.11
42 | G2U U20A G35U | 0.06

Row | Variant | self-cleavage
43 | G2U G22C C31G C42U | 0.02
44 | G2U U9C U32G G40C C46A | 0.01
45 | G2U C8U U32A A41G | 0.05
46 | G2U C15U G17U A24U A26C G35C | 0.07
47 | G2U G7A A12C G40A G44A | 0.01
48 | G2U C10G C37U | 0.02
49 | G2U C15A G30U G33U | 0.05
50 | G2U U38G G40A C46U | 0
51 | C3A A4C A16U A24C G30C G36U | 0.17
52 | G2U C15U C42U | 0.06
53 | G2U G27U C37A G40C | 0.04
54 | G2U C10A G21A | 0.03
55 | G2U U34G C46U | 0.02
56 | G2U G19C A24U C37G | 0.05
57 | G2U U20A C23U C46G | 0.19
58 | G2U C23A U34G A39U | 0.03
59 | G2U C23G A41G | 0.03
60 | G2U C8U U38A | 0.02
61 | G2U U20A G33A C46U | 0.01
62 | G2U C8U G30A | 0.04
63 | G2U C8A C13A A25C G29A G30U C31G | 0.06

Row | Variant | self-cleavage
64 | G2U G19U U32A G33A | 0.01
65 | G2U G35A C42G | 0.01
66 | G2U G17U U20G | 0.01
67 | G2U C13U G17A A41U U43A | 0.02
68 | G2U C10G C23U G29A U32A | 0.01
69 | G2U U9G G22U C45G | 0.03
70 | G2U G7U A12C C23U C42A | 0.01
71 | C3A A4C A16G G40U | 0.27
72 | G2U G17C U20G G35A | 0.02
73 | G2U G5C C13A A25U | 0.04
74 | G2U C8U G33A | 0.03
75 | G2U C10A G22C G33A | 0.02
76 | G2U C10A A11U U28C C46U | 0
77 | G2U C13U G21C C31U G44A | 0.03
78 | G2U G44A C46A | 0.03
79 | G2U G30A C37A | 0.05
80 | G2U C8U G27C | 0.04
81 | G2U U9A C18A A26U A41G | 0
82 | G2U G5C C10U A11U C18U | 0.01
83 | G2U C13U A14C G36C | 0.02
